This is one part of the list.

This test concerns HSkMC (human skeletal muscle cells). Put plainly: cytotoxicity call (relative viability < 0.9). The settings on record: 10 µM.
As for `C[C@H](CO)N1C[C@H](C)[C@H](CN(C)C(=O)c2ccncc2)OCCCC[C@H](C)Oc2ccc(NC(=O)C3CCCCC3)cc2C1=O`, the cytotoxicity call was “inactive”. In the case of `Cc1noc(C)c1S(=O)(=O)N(C)C[C@H]1Oc2ccc(NS(=O)(=O)c3ccccc3)cc2C(=O)N([C@H](C)CO)C[C@H]1C`, the cytotoxicity call is “inactive”. With `O=C(C[C@@H]1C[C@@H]2c3cc(NS(=O)(=O)c4ccc(F)cc4)ccc3O[C@@H]2[C@@H](CO)O1)NC1CCCC1` the entry was “inactive”; with `COc1ccc(S(=O)(=O)Nc2ccc3c(c2)C(=O)N([C@H](C)CO)C[C@@H](C)[C@H](CN(C)S(C)(=O)=O)OCCCC[C@@H](C)O3)cc1`, “inactive”. Then `C[C@H](CO)N1C[C@H](C)[C@@H](CN(C)S(=O)(=O)c2cn(C)cn2)Oc2c(NC(=O)CCCN(C)C)cccc2C1=O`, with “inactive”; and `CC(C)C#Cc1cnc2c(c1)C(=O)N([C@H](C)CO)C[C@@H](C)[C@@H](CN(C)C(=O)c1ccc3c(c1)OCO3)O2`, with “inactive”. Take `C[C@@H]1CN([C@H](C)CO)C(=O)Cc2cc(NC(=O)Cc3cn(C)c4ccccc34)ccc2O[C@@H]1CN(C)Cc1ccc(C(F)(F)F)cc1`: the cytotoxicity call is “inactive”. For `COc1cc(N2CCC3(CC2)CNC(=O)CO3)ncn1`, the cytotoxicity call is “inactive”. With `COc1ccc(NC(=O)N(C)C[C@H]2OCCCC[C@H](C)Oc3ccc(NC(=O)Nc4cccc5ccccc45)cc3C(=O)N([C@H](C)CO)C[C@H]2C)cc1`, the cytotoxicity call is “inactive”. With `C[C@H]1CN([C@@H](C)CO)C(=O)c2cc(NC(=O)Nc3cccc4ccccc34)ccc2O[C@H]1CN(C)C(=O)Nc1ccc(C(F)(F)F)cc1`, the cytotoxicity call is “inactive”. As for `CCCNC(=O)N1C[C@@H](O)COC[C@@H]2O[C@H](CC(=O)NCc3ccncn3)CC[C@H]21`, the cytotoxicity call was “inactive”. `C[C@@H]1CN([C@H](C)CO)C(=O)c2cc(NS(=O)(=O)c3cn(C)cn3)ccc2O[C@@H]1CN(C)S(=O)(=O)c1cccs1`: the cytotoxicity call is “inactive”. For the molecule `Nc1nnc([C@H]2CCCO2)s1`, the cytotoxicity call was “inactive”.

For the molecule `COCC(=O)Nc1ccc2c(c1)C(=O)N(C)C[C@@H](OC)[C@@H](C)CN(Cc1cccc(F)c1)[C@@H](C)CO2`, the cytotoxicity call was “inactive”. Consider `Cc1ccc(S(=O)(=O)N(C)C[C@H]2OCCCC[C@@H](C)Oc3ccc(NC(=O)Nc4ccccc4)cc3C(=O)N([C@@H](C)CO)C[C@H]2C)cc1`, for which the cytotoxicity call was “inactive”. Take `O=C(C[C@H]1CC[C@H]2[C@@H](COC[C@@H](O)CN2S(=O)(=O)c2cccc(F)c2)O1)NCCCN1CCOCC1`: the cytotoxicity call was “inactive”. Consider `COc1ccc(-c2cnc3c(c2)C(=O)N([C@@H](C)CO)C[C@@H](C)[C@@H](CN(C)C(=O)Cc2ccncc2)O3)cc1`, for which the cytotoxicity call is “inactive”. Take `NCC[C@@H]1CC[C@H](NC(=O)Nc2ccc(F)cc2)[C@H](CO)O1`: the cytotoxicity call was “inactive”. With `CCOC(=O)[C@H]1C/C=C/C[C@H](C(=O)OCC)C(=O)O[C@H]2[C@@H](OC)O[C@H](CO)[C@@H](OC(=O)Nc3ccccc3)[C@@H]2OC1=O`, the cytotoxicity call is “inactive”. As for `C[C@@H]1CCCCO[C@@H](CN(C)C(=O)Nc2ccc(C(F)(F)F)cc2)[C@H](C)CN([C@@H](C)CO)C(=O)c2cc(NC(=O)Nc3cccc4ccccc34)ccc2O1`, the cytotoxicity call is “inactive”. As for `C[C@H]1CCCCO[C@H](CN(C)Cc2ccccc2)[C@@H](C)CN([C@@H](C)CO)C(=O)c2cc(NC(=O)Nc3ccc(C(F)(F)F)cc3)ccc2O1`, the cytotoxicity call was “active”. For `C[C@H]1CCCCO[C@H](CN(C)C(=O)CCC(F)(F)F)[C@@H](C)CN([C@@H](C)CO)C(=O)c2cc(NC(=O)C3CCCCC3)ccc2O1`, the cytotoxicity call is “inactive”.

Regarding `COc1ccccc1CN1C(=O)c2ccccc2[C@](Cc2ccccc2I)(C(=O)NCCCN(C)C)[C@@H]1c1ccc(CO)cc1`, the cytotoxicity call was “inactive”. With `O=C(C[C@H]1C[C@H]2c3cc(NS(=O)(=O)c4ccc(F)cc4)ccc3O[C@H]2[C@@H](CO)O1)NCC(F)(F)F` the entry was “inactive”; with `CN1CCN2c3ncccc3Cc3ccccc3C2C1` (centres undefined), “inactive”; with `C[C@@H]1CN([C@H](C)CO)C(=O)Cc2cc(NS(=O)(=O)c3cccs3)ccc2O[C@@H]1CN(C)Cc1ccncc1`, “inactive”. As for `C[C@@H]1CCCCO[C@@H](CN(C)Cc2ccccc2)[C@@H](C)CN([C@@H](C)CO)C(=O)c2cc(NS(=O)(=O)c3ccc(Cl)cc3)ccc2O1`, the cytotoxicity call is “inactive”.

Take `O=C(C[C@H]1C=C[C@@H](NC(=O)c2ccc(F)cc2)[C@@H](CO)O1)NCc1ccncn1`: the cytotoxicity call was “inactive”. Take `C[C@@H]1CN([C@@H](C)CO)C(=O)c2cc(C#CC3(O)CCCC3)cnc2O[C@H]1CN(C)S(=O)(=O)c1cccc(F)c1`: the cytotoxicity call is “inactive”.

Values taken from the antibiotic and cytotoxicity screens of Wong et al. (2023).
